Experimental data: PubChem BioAssay (NCI)
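Exposure lasted 48 hours, with cells grown in 96-well plates and compounds tested at five concentrations. The concentration for 50% growth inhibition is given as GI50. The concentration for full growth arrest is given as TGI.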

These compounds were tested on NCI-H322M lung (assay: inhibition of tumour cell growth, NCI panel, 48 h).

Row | Structure (SMILES) | TGI [µM] | GI50 [µM]
1 | O=C(NNCc1ccco1)c1cc2ccccc2[nH]1 | > 100 | 
2 | Cc1ccc2nc(-c3ccccc3)c(N=O)n2c1 | > 100 | 
3 | O=S(Nc1ccccc1)c1ccc(Cl)c(Cl)c1 (centres undefined) | > 100 | 
4 | COc1ccc(/C=C(\C#N)n2nnc3ccccc32)cc1 | > 35.3 | 0.527
5 | CN1C(=O)C(c2c[nH]c3ccccc23)N(C)C(=O)C1c1c[nH]c2ccccc12 (centres undefined) | > 100 | 
6 | CN(C)CCNC(=O)c1cccc2[nH]c(-c3cccnc3)nc12 | 72.5 | 
7 | CCC[CH2][Sn]([CH2]CCC)([CH2]CCC)[O]C(=O)c1ccc(Cl)cc1Cl | 0.33 | 0.165
8 | C=C1C(=O)O[C@H]2[C@H]1CCC(/C=N/c1ncc(Br)cc1N)=C\CC[C@@]1(C)O[C@@H]21 | 22.2 | 10.3
9 | O=C(Nc1ccccc1)n1[nH]c(=O)n(-c2ccccc2)c1=O | > 100 | 
10 | O=S(=O)(c1cccc2c(Cl)cccc12)N1CCCNCC1 | 23.8 | 11.4
11 | O=C(O)CCc1cccc2c1oc1c(CCC(=O)O)cccc12 | > 100 | 
12 | C[n+]1ccc(Nc2ccc(NC(=O)c3ccc(Nc4cc[n+](C)c5ccc([N+](=O)[O-])cc45)cc3[N+](=O)[O-])cc2)cc1 | > 100 | 
13 | CC(=O)C(CN(Cc1ccccc1)Cc1ccccc1)C(c1ccccc1)c1c(O)c2ccccc2oc1=O (centres undefined) | > 100 | 
14 | COc1ccc(/C(=N\O)c2cc(C)c(OC)c(C)c2)cc1O | > 100 | 0.0297
15 | COc1cc(/C=C2\C(=O)N(c3ccccc3Cl)C(c3ccccc3)S2(=O)=O)cc(OC)c1OC (centres undefined) | > 100 | 
16 | CN(C)CC1CCCC(CN(C)C)C1=NOC(=O)c1ccccc1 (centres undefined) | > 100 | 
17 | CCCC/C=C1\CCC(C)(CN(C)C)C1=O (centres undefined) | > 100 | 
18 | COc1cc(-n2cc(-c3ccc(Cl)cc3)nc2SCc2cccc(C#N)c2)cc(OC)c1OC | > 100 | 36
19 | O=P1(c2ccccc2)C(c2ccccc2)=CC=C1c1ccccc1 | > 100 | 
20 | C/C=C1/CCC2c3[nH]c4ccccc4c3CCN2C1 (centres undefined) | > 100 | 
21 | CC(C)c1c(O)ccc2c1CCC1C(C)(C)CCCC21C (centres undefined) | 32.1 | 
22 | Cc1c(F)c(N)c2c(=O)cc(-c3ccc(N)c(F)c3)oc2c1F | 60.3 | 
23 | COC(=O)CCC1CCC(c2cc(F)ccc2F)(S(=O)(=O)c2ccc(Cl)cc2)CC1 (centres undefined) | > 100 | > 100
24 | O=C1C=CC2(O)OCCN(CCO)C2=C1 (centres undefined) (tested in a mixture with another compound) | > 100 | 
25 | CCN1Cc2c(ccc(F)c2C#N)O[C@@H](C)CNC(=O)c2c(N)nn3ccc1nc23 | 36.2 | 3.02

Row | Structure (SMILES) | TGI [µM] | GI50 [µM]
26 | Cc1cc2sc(C)[n+](CCCOS(=O)(=O)[O-])c2cc1C | > 100 | 
27 | COc1c(Br)cc(/C=C(\C#N)c2cccnc2)cc1Br | > 100 | 
28 | COc1cc(/C=C/C(=O)c2c(C)nc3ccccc3c2/C=C/c2ccc(C)cc2)cc(OC)c1OC | 6.62 | 2.24
29 | O=C(c1ccccc1)C(Br)C(Br)c1cccc([N+](=O)[O-])c1 (centres undefined) | 28.9 | 15.3
30 | C=CCN1C(=O)/C(=C/c2ccc(C)cc2)NC1=S | > 100 | 
31 | Oc1ccccc1CNCC12CC3CC(CC(C3)C1)C2 | > 100 | 44
32 | COc1ccc(N2C(=O)C3c4[nH]c5ccccc5c4C4CC(C)CC(C)C4C3C2=O)cc1 (centres undefined) | > 100 | 
33 | NC(CCC(=O)NC(CSC(=O)N(O)c1ccccc1)C(=O)NCC(=O)O)C(=O)O (centres undefined) | > 1000 | 
34 | Fc1ccccc1C1SCc2nc3ccccc3n21 (centres undefined) | > 100 | 
35 | Cc1cc2nc(N3C(=O)/C(=C/c4ccccc4S)N=C3c3ccccc3)sc2cc1C | > 100 | 
36 | Cc1ccc2c(c1)CC1(Cc3c(C)cccc3C1=O)C2=O (centres undefined) | > 100 | 
37 | COc1cccc(OCCCN)c1-c1cc(Nc2cnc(C#N)cn2)n[nH]1 | 11.1 | 0.0168
38 | Cc1ccc(C(=O)Nc2ccc(CP(=O)(O)O)cc2CP(=O)(O)O)cc1NC(=O)c1cccc(NC(=O)Nc2cccc(C(=O)Nc3cc(C(=O)Nc4ccc(CP(=O)(O)O)cc4CP(=O)(O)O)ccc3C)c2)c1 | > 100 | 
39 | Nc1ccc(S(=O)(=O)Nc2ccc(Nc3c4ccccc4nc4ccccc34)cc2)cc1 | 18.5 | 
40 | Cc1ccc2c(c1)C(C)Cc1c(Cl)ncnc1N2C (centres undefined) | 21 | 2.41
41 | NC(=O)C1Cc2cc3c(cc21)OCO3 (centres undefined) | > 100 | 
42 | OC1[C@H](O)CN(OCc2ccccc2)C[C@@H]1O (some centres undefined) | > 100 | 
43 | CC(C)(C)c1ccc(-n2c3nc(=O)n(-c4ccccc4CO)c(=O)c-3cc3ccccc32)cc1 | > 100 | 
44 | O=C(NC1C=Nc2ccc([N+](=O)[O-])cc2NC1=O)c1cc(Cl)cc([N+](=O)[O-])c1 (centres undefined) | > 100 | 
45 | Nc1c(C(=O)Nc2ccc(C3=NCCN3)cc2)cccc1C(=O)Nc1ccc(C2=NCCN2)cc1 | > 100 | 
46 | COc1cc2c(cc1OC)[C@H]1C(COC(=O)c3ccccc3)CSC(=Nc3ccccc3)N1CC2 (some centres undefined) | > 100 | 
47 | Oc1cc(-c2ccc(Cl)cc2)cn2c1nc1ccccc12 | > 100 | 
48 | Cc1sc2nc(-c3ccc([N+](=O)[O-])cc3)c(/C=N/N=C(N)N)n2c1C | 2.73 | 
49 | COc1cc(/C=N/NC(=O)c2cnn3c2NC(c2ccccc2)C3)ccc1Oc1ccccc1 (centres undefined) | 9.87 | 1.69
50 | CN(C(=O)C1CCCCCC1=O)c1ccccc1Cl (centres undefined) | > 100 | 
